According to PMC4336329 (PLoS ONE, 2015):
Among all 310,000 compounds or so, about 2,200 (0.71%) showed an effect of 50% or more. Effects have a minus sign here. The list shows a part of the results.

target: human ether-à-go-go-related gene (hERG) potassium channel (human, UniProt Q12809); assay: primary screen, population patch clamp on CHO cells stably expressing hERG
Sequence (Q12809 whole entry, looked up): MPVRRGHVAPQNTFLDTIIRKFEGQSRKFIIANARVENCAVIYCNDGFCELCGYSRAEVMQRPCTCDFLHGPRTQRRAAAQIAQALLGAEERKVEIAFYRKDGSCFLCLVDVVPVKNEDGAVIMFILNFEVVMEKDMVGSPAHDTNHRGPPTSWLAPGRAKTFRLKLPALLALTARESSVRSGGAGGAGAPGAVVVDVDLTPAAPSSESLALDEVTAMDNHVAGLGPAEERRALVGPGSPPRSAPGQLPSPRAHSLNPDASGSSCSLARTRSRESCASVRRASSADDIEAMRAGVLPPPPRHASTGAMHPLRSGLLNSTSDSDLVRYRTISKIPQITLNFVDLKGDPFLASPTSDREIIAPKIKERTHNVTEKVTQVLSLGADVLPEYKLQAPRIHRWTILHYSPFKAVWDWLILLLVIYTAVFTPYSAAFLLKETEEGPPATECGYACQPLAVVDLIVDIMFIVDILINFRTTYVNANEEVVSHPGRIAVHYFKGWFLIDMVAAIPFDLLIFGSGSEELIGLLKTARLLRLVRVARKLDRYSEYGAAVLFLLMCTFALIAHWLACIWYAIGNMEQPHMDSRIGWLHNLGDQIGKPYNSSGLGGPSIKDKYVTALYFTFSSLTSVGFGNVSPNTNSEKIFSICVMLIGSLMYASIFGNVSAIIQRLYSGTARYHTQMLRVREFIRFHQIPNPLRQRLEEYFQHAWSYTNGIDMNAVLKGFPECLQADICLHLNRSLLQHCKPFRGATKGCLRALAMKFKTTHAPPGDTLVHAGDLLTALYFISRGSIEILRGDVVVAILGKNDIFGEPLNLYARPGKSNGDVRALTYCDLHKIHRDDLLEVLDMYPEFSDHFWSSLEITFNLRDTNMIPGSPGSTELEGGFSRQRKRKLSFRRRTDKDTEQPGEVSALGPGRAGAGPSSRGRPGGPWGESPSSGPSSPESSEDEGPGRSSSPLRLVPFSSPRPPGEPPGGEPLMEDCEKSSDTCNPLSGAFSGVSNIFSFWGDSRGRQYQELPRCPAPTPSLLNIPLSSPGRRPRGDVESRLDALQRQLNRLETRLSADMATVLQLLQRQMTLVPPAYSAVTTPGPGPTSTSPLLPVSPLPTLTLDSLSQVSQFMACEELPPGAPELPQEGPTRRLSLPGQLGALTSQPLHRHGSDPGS

Compound	hERG current change (%, negative = inhibition) at 1uM [%]
CC(C)Cc1nnc(NC(=O)Cc2ccccc2[N+](=O)[O-])s1	2.31
CCN(CC(=O)Nc1c(F)cccc1F)C(=O)CNC(=O)c1ccc(Br)o1	17.2
CC1CCCCN1S(=O)(=O)c1ccc(C(=O)N(CCCN(C)C)c2nc3cc4c(cc3s2)OCO4)cc1.Cl (stereo not shown)	-26
COc1ccc(-c2cc(-c3ccccc3)nc(SC(C)C(=O)O)c2C#N)cc1 (stereo not shown)	11
O=C(Nc1ccc(OC(F)F)c(Cl)c1)c1ccccn1	16
Cc1cc(C)cc(NC(=O)Cn2c(=O)oc3cc(S(=O)(=O)N4CC(C)CC(C)C4)ccc32)c1 (stereo not shown)	6.42
COc1ccccc1-n1cnnc1SCC(=O)Nc1nc(C)c(Cl)cc1Cl	8.65
CC(C)(C)c1ccccc1OCCN1CCCC1	-13.8
N#CCCN(C(=O)COC(=O)C12CC3CC(CC(O)(C3)C1)C2)c1ccc(F)cc1	13.4
CSCCC(NC(=O)c1ccco1)C(=O)OCC(=O)Nc1ncc(Cl)c(C)c1Cl (stereo not shown)	1.17
Cc1cc(NC(=O)c2ccc(F)cc2)no1	8.85
O=C(Nc1ccc(S(=O)(=O)Nc2cnc3ccccc3n2)cc1)c1ccc(Cl)c([N+](=O)[O-])c1	17.3
COc1cc(C=O)ccc1OCc1c(C)noc1C	12.3
COc1cc(CNCCN2CCOCC2)ccc1OCc1c(Cl)cccc1Cl.Cl	-5.61
Cc1ccc(NS(=O)(=O)c2c(C)nc3sccn3c2=O)cc1C	-4.59
CC1CCCC(CC(=O)O)(CC(=O)O)C1 (stereo not shown)	14.1
CCOc1ccc(S(=O)(=O)N(CC)CC(=O)NCc2ccccn2)cc1C	9.07
Cc1cc([N+](=O)[O-])ccc1NC(=O)CCC(=O)N1CCCCCC1	1.82
COc1cc(C(=O)NCCC(=O)NCc2ccc3c(c2)OCO3)cc(OC)c1OC	11.9
CCc1ccc(NCc2nc3ccccc3c(=O)[nH]2)cc1	8.47
O=C(Nc1cccc(C(F)(F)F)c1)C12CC3CC(CC(C3)C1)C2	8.26
COc1ccc(OC)c(NS(=O)(=O)c2ccc(N3CCCC3=O)cc2)c1	5.31

Compound	hERG current change (%, negative = inhibition) at 1uM [%]
COc1ccc(-n2nc(C(=O)NCC(=O)N3CCCC3)c3ccccc3c2=O)cc1Cl	16.7
CCc1ccc(O)c(N=Cc2ccccc2O)c1	5.5
CCN(CC)S(=O)(=O)c1ccc(OC)c(NC(=O)/C=C/c2ccco2)c1	3.57
Cc1ccccc1OCC(=O)NCC(=O)OCC(=O)c1ccc2ccccc2c1	0.168
COCCCNc1c2c3c(cccc3[nH]c1=O)C(=O)c1ccccc1-2	2.86
Cc1c(Br)c([N+](=O)[O-])nn1CC(=O)Nc1ccc(CC#N)cc1	13.6
CSc1ccc(CCNC(=O)C2CCN(c3nnc(-n4cccc4)s3)CC2)cc1	8.21
O=C(CSc1c[nH]c2ccccc12)N1CCCc2ccccc21	8.44
O=C(Cn1nc(-c2ccccc2)c2ccccc2c1=O)Nc1ccccn1	-1.62
CCC(=O)Nc1cccc(NC(=O)c2ccc(C)c([N+](=O)[O-])c2)c1	-2.36
CCc1c(C)sc(NC(=S)N2CC(C)OC(C)C2)c1C(=O)OC (stereo not shown)	9.46
CCCN(CCC)Cc1c(C(=O)N/N=C/CCc2ccccc2)nnn1-c1nonc1N	-3.67
CC(NC(=O)CCC(=O)NCc1ccc(F)cc1)c1ccccc1 (stereo not shown)	15.1
CC(C)c1ccc(N(C)C(=O)Cc2c(C(=O)O)n(C)c3ccccc23)cc1	12.7
CC(C)CN(C(=O)COC(=O)c1cncc(Br)c1)c1c(N)n(Cc2ccccc2)c(=O)[nH]c1=O	20.7
CCOc1ccc(S(=O)(=O)N2CCC(C(=O)NCc3cccnc3)CC2)cc1Cl	-12.4
NNc1ccc2nncn2n1	11.5
COC(=O)C1=C(C(=O)OC)C2C(C)=CC(C)=CN2C(C(=O)OC)=C1C(=O)OC (stereo not shown)	-1.4
O=C(c1cccc(Cl)c1)C1CCCN(C(=O)c2ccc3c(c2)OCO3)C1 (stereo not shown)	3.55
CC1CCCC(NS(=O)(=O)c2cccc3nsnc23)C1C (stereo not shown)	15.8
CCOCCCn1c(=S)[nH]c2cc(C(=O)N3CCOCC3)ccc2c1=O	-11.1
